Measured values: the supplement of paper PMC10600219
Structures can show the parent of a compound that is named as a salt. Over roughly 2,800 compounds, “cell viability relative to vehicle” has its median near 0.98; the lowest 2% begin near 0.45. This is one part of the list.

tested on: NCI-H2228 alectinib-DTP; test: cell viability relative to vehicle (fraction of vehicle); NCI-H2228 is an ALK-positive lung cancer line and DTP means drug-tolerant persister; higher = less growth inhibition; settings: 100 nM; treatment time 6 days
Procedure, shortened: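 Parental NCI-H2228 cells and drug-tolerant persister cells (made with 1000 nM of a targeted drug for 13 days) were seeded in 384-well plates. The next day, the 3114-agent TargetMol anti-cancer compound library was added at 100 nM, with DMSO as vehicle. After 6 days, ATP was read with the CellTiter-Glo 3D Cell Viability Assay. Each value is cell viability relative to vehicle-treated cells.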

Compound	cell viability
Nc1nc(Cl)nc2c1ncn2[C@@H]1O[C@H](CO)[C@@H](O)[C@@H]1F [Clofarabine]	0.471
COc1ccc(-c2cc(=O)c3c(O)cc(O)cc3o2)cc1O [Diosmetin]	0.988
CN1CC[C@H](c2c(O)cc(O)c3c(=O)cc(-c4ccccc4Cl)oc23)[C@H](O)C1 [Flavopiridol hydrochloride]	0.745
NCCCNc1ccc(Nc2nccc(Nc3cc(C4CC4)[nH]n3)n2)cc1	0.779
CN(C)Cc1c(C(=O)NCCOc2ccc(C(=O)NO)cc2)oc2ccccc12	0.823
COCCN1CCN(Cc2ccc(-c3n[nH]c4c3C(=O)c3c(NC(=O)NN5CCOCC5)cccc3-4)cc2)CC1	0.3
O=C1CN2Cc3c(ccc(Cl)c3Cl)N=C2N1 [Anagrelide]	1.09
CC(=O)N1c2ccc(-c3ccc(C(=O)O)cc3)cc2[C@H](Nc2ccc(Cl)cc2)C[C@@H]1C	0.869
CC(=O)c1cnc2ccc(-c3cc(Cl)c(O)c(Cl)c3)nc2c1N[C@H]1CC[C@H](CN(C)C)CC1	0.664
Nc1nc(F)nc2c1ncn2[C@@H]1O[C@H](CO)[C@@H](O)[C@@H]1O [Fludarabine]	0.93
COc1ccc(C=O)c(O)c1 [4-Methoxysalicylaldehyde]	0.873
CC(C)CC(=O)Nc1n[nH]c2c1CN(C(=O)C1CCN(C)CC1)C2(C)C	1
O=C(NCCS(=O)(=O)c1ccc(C(F)(F)F)cn1)c1ccc(Cl)cc1	1.07
COc1cccc(CNC(=O)Nc2nc(-c3ccncc3)cs2)c1	1.11
O=C(CCCCCCNC(=O)c1cnc(N(c2ccccc2)c2ccccc2)nc1)NO [Rocilinostat]	0.923
O=c1ncccn1[C@@H]1O[C@H](CO)[C@@H](O)[C@H]1O [Zebularine]	1.08
CC(=O)N[C@H]1CSSC[C@@H](C(N)=O)NC(=O)[C@H](C(C)C)NC(=O)[C@H](C)NC(=O)[C@H](Cc2c[nH]cn2)NC1=O [Exherin trifluoroacetate]	1.11
CCOC(=O)c1cnn(-c2ccccc2)c1NC(=O)c1cc2nc(-c3ccco3)cc(C(F)(F)Cl)n2n1 [Mycro-3]	1.21
Cc1ccc(S(=O)(=O)Nc2cc(C(F)(F)F)ccc2C(=O)Nc2nc(-c3ccccc3)cs2)cc1	0.852
COc1cc(C(N)=O)ccc1NC(=O)[C@@H]1N[C@@H](CC(C)(C)C)[C@@]2(C(=O)Nc3cc(Cl)ccc32)[C@H]1c1cccc(Cl)c1F	0.953
CC(C)n1nc(-c2cc3cc(O)ccc3[nH]2)c2c(N)ncnc21 [Torkinib]	0.733
NCCC[C@H](N)C(=O)O [L-Ornithine]	1.01
CNc1nc(Nc2cnn([C@H]3CCN(C4COC4)C[C@@H]3F)c2Cl)ncc1C(F)(F)F	1.01
CO[C@H]1/C=C/O[C@@]2(C)Oc3c(C)c(O)c4c(c3C2=O)C2=NC3(CCN(CC(C)C)CC3)NC2=C(NC(=O)/C(C)=C\C=C\[C@H](C)[C@H](O)[C@@H](C)[C@@H](O)[C@@H](C)[C@H](OC(C)=O)[C@@H]1C)C4=O [Rifabutin]	0.768
O=c1cc(-c2ccc(O)cc2)oc2cc(O)cc(O)c12 [Apigenin]	0.975
CCCCCN(CCCOC)C(=O)C(CCC(=O)O)NC(=O)c1ccc(Cl)c(Cl)c1 (stereo unspecified) [Loxiglumide]	0.982

Compound	cell viability
NNC(=O)c1ccccn1 [2-Picolinyl hydrazide]	1.02
c1cnc2cc3c(cc2n1)[C@@H]1CNC[C@H]3C1 [Varenicline Tartrate]	0.794
C[C@@H](N)[C@H]1CC[C@H](C(=O)Nc2ccncc2)CC1	0.956
CCn1cc(C(=O)O)c(=O)c2ccc(C)nc21 [Nalidixic acid sodium salt]	0.846
CCn1cc(C(=O)O)c(=O)c2ccc(C)nc21 [Nalidixic acid]	0.885
COc1ccc(-c2oc3c(CC=C(C)C)c(O[C@@H]4O[C@H](CO)[C@@H](O)[C@H](O)[C@H]4O)cc(O)c3c(=O)c2O[C@@H]2O[C@@H](C)[C@H](O)[C@@H](O)[C@H]2O)cc1 [Icariin]	0.967
C[C@H]1[C@@H](O)O[C@@H]2O[C@@]3(C)CC[C@H]4[C@H](C)CC[C@@H]1[C@@]24OO3 [Dihydroartemisinin]	0.987
COc1ccc2cc(CCC(C)=O)ccc2c1 [Nabumetone]	1.01
CN(C)c1ccc(C(=O)NCCCCCCC(=O)NO)cc1 [Histone Deacetylase Inhibitor III]	0.845
C#CCN(C)Cc1ccccc1 [Pargyline]	1.12
C#CCN(C)Cc1ccccc1 [Pargyline hydrochloride]	0.784
O=C(COCC(=O)Nc1ccc(Cl)cc1C(=O)O)Nc1cccc(-c2ccoc2)c1	1.17
Cc1ccc(-c2nn(C(C)(C)CNC(=O)c3ccncc3)c3ncnc(N)c23)cc1	0.96
CCO[C@@H]1OC(=O)C[C@@H]1NC(=O)[C@@H]1CCCN1C(=O)[C@@H](NC(=O)c1ccc(N)c(Cl)c1)C(C)(C)C [Belnacasan]	1.05
Cc1ccc(NC(=O)c2ccc(CN3CCN(C)CC3)cc2)cc1Nc1nc(-c2cccnc2)cs1 [Masitinib]	1.03
O=C(Nc1cc(C(F)(F)F)ccc1N1CCCCC1)c1ccncc1	1.15
NCCS(=O)(=O)O [Taurine]	1.22
COc1cc2nc(N3CCN(C(=O)c4ccco4)CC3)nc(N)c2cc1OC [Prazosin hydrochloride]	1.09
CCCCS(=O)(=O)N[C@@H](Cc1ccc(OCCCCC2CCNCC2)cc1)C(=O)O [Tirofiban hydrochloride monohydrate]	1.02
Cc1cc(Cn2cnc3c2CC(C(=O)O)N(C(=O)C(c2ccccc2)c2ccccc2)C3)ccc1N(C)C (stereo unspecified)	1.07
CCn1c(=Cc2cccc[n+]2CC)sc(=C2Sc3ccccc3N2C)c1=O	1.06
O=c1c(O)c(-c2cc(O)c(O)c(O)c2)oc2cc(O)cc(O)c12 [Myricetin]	1.17
OC[C@@H](O)[C@@H](O)[C@@H](O)[C@@H](O)CO [Allitol]	0.998
COc1ccc(-c2cc(=O)c3c(O)cc(O)cc3o2)cc1 [Acacetin]	0.908
Cc1ccc(S(=O)(=O)NC(=O)NN2CC3CCCC3C2)cc1 (stereo unspecified) [Gliclazide]	0.919
